Test results published in PubChem BioAssay AID2546 (National Center for Advancing Translational Sciences (NCATS), 2010).
The whole screen tested about 310,000 compounds, of which about 11,000 (3.5%) were called active. The shares of active, inactive and inconclusive entries below differ from those in the screen. The call rests on the fitted dose curve; in most records, active means well fitted inhibition curve with a large enough effect; inconclusive means small, poorly fitted or top-dose-only effect, or effect the other way; inactive means flat fitted curve, though single readings scatter. No potency is given beside an inconclusive call; the fits are too rough.

Assay: VP16 counterscreen qHTS for inhibitors of ROR gamma transcriptional activity;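 further: Gal4-VP16 expression switched on by copper sulfate through the metallothionein promoter; nearly all actives have a fitted effect of over 50% in size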
Conditions: Drosophila S2 Gal4-VP16 UAS-luciferase, luminescence, 20 h; activity, negative = inhibition: at 53.6 µM (top of the series)
On the % scale 0 is the no-effect control and ±100 the full control effect; potency means the concentration at half of the fitted maximal effect; tags describe the fitted curve by direction and shape.

Structure (SMILES) | Potency | activity, negative = inhibition
CCc1nc2c(oc3ccccc32)c(=O)[nH]1 | inconclusive [inhibitor, single point] | 
CCN(c1ccc(NC(=O)c2cccc(S(=O)(=O)N3CCN(C)CC3)c2)cc1)C(C)C | inconclusive [inhibitor, single point] | 
CCN1CCN(CCNC(=O)c2ccc(/C=C3\Sc4ccccc4N(Cc4ccccc4F)C3=O)cc2)CC1 | inconclusive [inhibitor, single point] | 
Cc1cccc(OCCCSc2nc3ccc(C)cc3[nH]2)c1 | inconclusive [inhibitor, single point] | 
c1csc(CCNc2ncnc3sc4c(c23)CCC4)c1 | active: 11.2 µM | 
COc1ccc(C(NC(=O)/C=C/c2ccco2)c2ccc(OC)cc2)cc1 | inconclusive [inhibitor, single point] | 
CCCCN(C(=O)c1ccccc1OCc1ccc(F)cc1)c1c(N)n(CCC)c(=O)[nH]c1=O | inconclusive [inhibitor, partial curve] | 
COc1cccc(-c2nc(NCC3CCCO3)c3ccccc3n2)c1O (configuration not stated) | inactive | 
Cn1c(CCN2CCN(c3ccccn3)CC2)nc2cc(NC(=O)COc3ccccc3)ccc21 | inactive | 
Cc1nc(SC2CC(=O)N(c3ccccc3)C2=O)n[nH]1 (configuration not stated) | active: 4.47 µM | 
COc1cccc(NC(=O)C2CCC(CNS(=O)(=O)c3ccc4c(c3)CC(C)N4C(C)=O)CC2)c1 (configuration not stated) | inactive | 
N#C/C(C(=O)c1ccccc1)=C1/CCCCCN1 | inconclusive [inhibitor, single point] | 
Cc1cc(C)n2nc(CNS(=O)(=O)c3c(F)c(F)c(F)c(F)c3F)nc2n1 | inconclusive [inhibitor, single point] | 
CC(C)c1ccccc1NC(=O)COC(=O)CCN1C(=O)/C(=C\C=C\c2ccccc2)SC1=S | active: 3.98 µM | 
NC(CSCc1cccc(Br)c1)C(=O)O (configuration not stated) | inactive | 
C=CCn1c(=O)c2ccccc2n2c(SCC(=O)Nc3sc(C(=O)N(CC)CC)c(C)c3C(=O)OCC)nnc12 | inconclusive [activator, single point] | 
Cc1csc(N(C(=O)c2ccc(S(=O)(=O)N(C)C)cc2)c2ccccc2)n1 | inactive | 
COc1cccc(OCc2cc(C(=O)N(C)Cc3nc(C)cs3)no2)c1 | inactive | 
CCOC(=O)CNC(=O)CSc1nnc(NC(=O)c2ccc(C)cc2)s1 | active: 6.31 µM | 
O=C1C(Cc2ccccc2)NC(=S)N1c1ccccc1 (configuration not stated) | inconclusive [inhibitor, single point] | 
Fc1ccccc1-c1ccc(/C=N/Nc2nc3ccccc3[nH]2)o1 | active: 3.55 µM | 
COc1ccc(NC(=O)c2cc(S(=O)(=O)N3CCS(=O)(=O)CC3)ccc2Cl)cc1 | inactive | 
CC(=O)Nc1ccc(C2=NNC(=Nc3cccc(S(=O)(=O)N(C)C)c3)SC2)cc1 | inconclusive [inhibitor, single point] | 
COc1ccc(-c2cn3cc(Br)cnc3n2)cc1 | inactive | 

Structure (SMILES) | Potency | activity, negative = inhibition
Cc1nn(-c2ccccc2)c(C)c1C(=O)OCC(=O)c1c(N)n(CC(C)C)c(=O)n(C)c1=O | inconclusive [inhibitor, single point] | 
O=C(O)c1nn(CC(=O)N2CCN(c3ncc(C(F)(F)F)cc3Cl)CC2)c(=O)c2ccccc12 | inconclusive [inhibitor, single point] | 
Cc1ccccc1NC(=O)c1nc(S(C)(=O)=O)ncc1Cl | active: 3.16 µM | 
FC(F)(F)c1cc(NC(=S)NC23CC4CC(CC(C4)C2)C3)cc(C(F)(F)F)c1 | inconclusive [inhibitor, single point] | 
Cc1cccc(/C=C2\CCC(C3CCCC3)C2=O)c1 (configuration not stated) | inconclusive [activator, single point] | 
NC(=S)N/N=C/c1ccc(-c2cccc([N+](=O)[O-])c2)o1 | active: 4.47 µM | 
Fc1ccc(NC(=S)Nc2ccc(Br)cc2)cc1 | inconclusive [inhibitor, single point] | 
CSC(=S)N/N=C/c1ccc(Br)cc1 | active: 1.78 µM | 
COc1cc(NC(=O)c2cccs2)cc(OC)c1 | inconclusive [activator, single point] | 
CCCn1c2c(c(O)c(C(=O)Nc3ncccc3O)c1=O)CCCC2 | inconclusive [inhibitor, single point] | 
CCn1c(C)nc2cc(C(=O)N/N=C(\C)c3ccc(OC)cc3O)ccc21 | active: 2.82 µM | 
Cc1ccc(/C=C2/CCc3c([nH]c4ccccc34)C2=O)cc1 | inconclusive [inhibitor, single point] | 
CCN(CC)c1ccc(/C=N/NC(=O)C(O)(c2ccccc2)c2ccccc2)o1 | active: 3.98 µM | 
O=C(CC1S/C(=N/N=C/C=C/c2ccccc2)NC1=O)Nc1ccc(Cl)c(Cl)c1 (configuration not stated) | active: 7.94 µM | 
COc1ccc(C(=O)Nc2ccc(-c3ccc(C)o3)cc2)cc1S(=O)(=O)N1CCOCC1 | inconclusive [inhibitor, single point] | 
Cn1cc(/C=C(\C#N)C(=O)Nc2ncc(Cc3cccc(Cl)c3)s2)c2ccccc21 | active: 1.41 µM | 
O=C(Nc1ccccc1Cl)N(Cc1nc2ccccc2c(=O)[nH]1)Cc1cccs1 | inconclusive [inhibitor, single point] | 
COC(=O)NC(c1cccc(F)c1)[C@@]1(C(=O)OC)CCCC1=O (some centres not stated) |  | inactive: -3.01% [at 10 µM]
COC(=O)c1sccc1NC(=O)Nc1cccc(C(C)=O)c1 | inconclusive [activator, partial curve, poor fit] | 
N=C1SC(CC(=O)Nc2ccc([N+](=O)[O-])cc2)C(=O)N1c1ccccc1 (configuration not stated) | inactive | 
CC(C(=O)N1CCN(C=O)CC1)N1C(=O)c2ccccc2C1=O (configuration not stated) | inactive | 
Cc1nc([N+](=O)[O-])c(Br)n1Cc1ccc(Cl)c(Cl)c1 | inconclusive [inhibitor, single point] | 
Cc1ccc(-c2sc(-c3ccccc3)nc2CC(=O)Nc2ccccc2F)cc1 | active: 5.01 µM | 
